Test results: the supplement of paper PMC12217912
This is one part of the list. Sequences were assembled here from the parent chain. Values near 0.05 are background.

B1: TEV protease; numbered along this chain (parent)
chain: MGESLFKGPRDYNPISSSICHLTNESDGHTTSLYGIGFGPFIITNKHLFRRNNGTLVVQSLHGVFKVKDTTTLQQHLVDGRDMIIIRMPKDFPPFPQKLKFREPQREERICLVTTNFQTKSMSSMVSDTSCTFPSGDGIFWKHWIQTKDGQCGSPLVSTRDGFIVGIHSASNFTNTNNYFTSVPKNFMELLTNQEAQQWVSGWRLNADSVLWGGHKVFMVKPEEPFQPVKEATQL

Variants of: B1
Test: raw area under fraction-flipped curve 0-4 h after induction (AUC4h, not background-subtracted), DNA-recorder readout of cleavage of the substrate (dimensionless); higher = more cleavage of the substrate by the protease variant
Conditions: temperature: 34 °C; time window: 0-4 h after rhamnose induction
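Note: Bxb1 expression induced with 0.2% (w/v) L-rhamnose at OD600 near 0.5, cultures sampled hourly, flipped fraction per protease–substrate barcode pair counted by paired-end Illumina sequencing.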

Variant | area with substrate ENLYFQC | area with substrate ENLYFQE | area with substrate ENLYFQG | area with substrate ENLYFQH | area with substrate ENLYFQK | area with substrate ENLYFQL | area with substrate ENLYFQM | area with substrate ENLYFQN | area with substrate ENLYFQQ | area with substrate ENLYFQR | area with substrate ENLYFQS | area with substrate ENLYFQT | area with substrate ENLYFQV | area with substrate ENLYFQW | area with substrate ENLYFQY | area with substrate ENLYFQD | area with substrate ENLYFQF | area with substrate ENLYFQI | area with substrate ENLYFQP
MGESLFKGPRDYNPISSSICHLTNESDGHTTSLYGIGFGPFIITNKHLFRRNNGTLVVQSLHGVFKVKDTTTLQQHLWDGRDMIIIRMPKDFPPFPQKLKFREPQREERICLVTTNFQTKSMSSMVSDTSCTFPSGDGIFWKHWIQTKDGQCGSPLVSTRDGFIVGIHSASNFTNTNNYFTSVPKNFMELLTNQEAQQWVSGWRLNADSVLWGGHKVFMVKPEEPFQPVKEATQL [V78W] | 0.0855 | 0.0525 | 0.0667 | 0.0694 | 0.0554 | 0.0564 | 0.0609 | 0.0668 | 0.0476 | 0.0594 | 0.0729 | 0.0554 | 0.0479 | 0.0516 | 0.0645 | – | – | – | –
MGESLFKGPRDYNPISSSICHLTNESDGHTTSLYGIGFGPFIITNKHLFRRNNGTLVVQSLHGVFKVKDTTTLQQHLVDGRDMIIQRMPKDFPPFPQKLKFREPQREERICLVTTNFQTKSMSSMVSDTSCTFPSGDGIFWKHWIQTKDGQCGSPLVSTRDGFIVGIHSASNFTNTNNYFTSVPKNFMELLTNQEAQQWVSGWRLNADSVLWGGHKVFMVKPEEPFQPVKEATQL [I86Q] | 0.0425 | – | – | 0.027 | – | 0.042 | 0.12 | – | 0.0358 | 0.0372 | 0.0442 | 0.0474 | 0.037 | 0.0273 | 0.0525 | 0.0461 | 0.0561 | 0.0406 | –
MGESLFKGPRDYNPISSSICHLTNESDGHTTSLYGIGFGPFIITNKHLFRRNNGTLVVQSLHGVFKVKDTTTLQQHLVDGRDMIIIRMPKDFPPFPQKDKFREPQREERICLVTTNFQTKSMSSMVSDTSCTFPSGDGIFWKHWIQTKDGQCGSPLVSTRDGFIVGIHSASNFTNTNNYFTSVPKNFMELLTNQEAQQWVSGWRLNADSVLWGGHKVFMVKPEEPFQPVKEATQL [L99D] | 0.0692 | – | – | 0.0508 | 0.0447 | 0.0603 | 0.0691 | 0.0595 | – | 0.0477 | 0.0698 | 0.0523 | 0.0384 | – | 0.0321 | 0.0687 | – | 0.0572 | 0.0437
MGESLFKGPRDYNPISSSICHLTNESDGHTTSLYGIGFGPFIITNKHLFRRNNGTLVVQSLHGVFKVKDTTTLQQHLVDGRDMIIIRMPKDFPPFPQKLKFREPQREERICLVYTNFQTKSMSSMVSDTSCTFPSGDGIFWKHWIQTKDGQCGSPLVSTRDGFIVGIHSASNFTNTNNYFTSVPKNFMELLTNQEAQQWVSGWRLNADSVLWGGHKVFMVKPEEPFQPVKEATQL [T114Y] | 0.0896 | – | – | – | 0.0603 | 0.0566 | – | 0.0848 | – | 0.0647 | 0.0967 | 0.0421 | – | 0.0728 | – | 0.0714 | – | 0.0594 | –
MGESLFKGPRDYNPISSSICHLTNESDGHTTSLYGIGFGPFIITNKHLFRRNNGTLVVQSLHGVFKVKDTTTLQQHLVDGRDMIIIRAPKDFPPFPQKLKFREPQREERICLVTTNFQTKSMSSMVSDTSCTFPSGDGIFWKHWIQTKDGQCGSPLVSTRDGFIVGIHSASNFTNTNNYFTSVPKNFMELLTNQEAQQWVSGWRLNADSVLWGGHKVFMVKPEEPFQPVKEATQL [M88A] | 0.11 | – | 0.0984 | – | 0.0497 | 0.0668 | 0.0992 | 0.0826 | 0.0718 | 0.0601 | 0.096 | 0.067 | – | 0.058 | 0.0402 | 0.0691 | 0.0769 | 0.0535 | –
MGESLFKGPRDYNPISSSICHLTNESDGHTTSLYGIGFGPFIITNKHLFRRNNGTLVVQSLHGVFKVKDTTTLQQHLVDGRDMEIIRMPKDFPPFPQKLKFREPQREERICLVTTNFQTKSMSSMVSDTSCTFPSGDGIFWKHWIQTKDGQCGSPLVSTRDGFIVGIHSASNFTNTNNYFTSVPKNFMELLTNQEAQQWVSGWRLNADSVLWGGHKVFMVKPEEPFQPVKEATQL [I84E] | 0.057 | 0.057 | 0.0413 | 0.0623 | 0.0394 | 0.049 | 0.0639 | 0.0547 | – | 0.0489 | 0.0573 | 0.0524 | 0.0546 | 0.0463 | – | 0.0516 | 0.0533 | – | 0.0566
MGESLFKGPRDYNPISSSICHLTNESDGHTTSLYGIGFGPFIITNKHLFRRNNGTLVVQSLHGVFKVKDTTTLQRHLVDGRDMIIIRMPKDFPPFPQKLKFREPQREERICLVTTNFQTKSMSSMVSDTSCTFPSGDGIFWKHWIQTKDGQCGSPLVSTRDGFIVGIHSASNFTNTNNYFTSVPKNFMELLTNQEAQQWVSGWRLNADSVLWGGHKVFMVKPEEPFQPVKEATQL [Q75R] | 0.0615 | – | 0.0736 | 0.0502 | – | 0.0616 | – | – | – | 0.0547 | 0.0588 | 0.0669 | 0.0595 | 0.0508 | – | 0.0591 | 0.0456 | 0.0634 | –
MGESLFKGPRDYNPISSSICHLTNESDGHTTSLYGIGFGPFIITNKHLFRRNNGTLVVQSLHGVFKVKDTTTLQQHLVDGRDMIIIRMPKDFPPFPQKLKFREPQREERICLVTTNFQTKSMSSMASDTSCTFPSGDGIFWKHWIQTKDGQCGSPLVSTRDGFIVGIHSASNFTNTNNYFTSVPKNFMELLTNQEAQQWVSGWRLNADSVLWGGHKVFMVKPEEPFQPVKEATQL [V126A] | 0.131 | – | 0.108 | 0.0891 | 0.0285 | 0.0522 | 0.104 | 0.0776 | – | 0.0517 | 0.108 | 0.0553 | – | 0.0668 | – | 0.0538 | 0.0825 | 0.0581 | 0.0431
MGESLFKGPRDYNPISSSICHLTNESDGHTTSLYGIGFGPFIITNKHLFRRNNGTLVVQSLHGVFKVKDTTTLQQHLVDGRDMIIIRMPKDFPPFPQKLKFREPQREEQICLVTTNFQTKSMSSMVSDTSCTFPSGDGIFWKHWIQTKDGQCGSPLVSTRDGFIVGIHSASNFTNTNNYFTSVPKNFMELLTNQEAQQWVSGWRLNADSVLWGGHKVFMVKPEEPFQPVKEATQL [R109Q] | 0.112 | – | 0.103 | – | 0.0702 | 0.0866 | 0.101 | 0.0751 | – | 0.0632 | 0.0983 | 0.0717 | 0.0557 | 0.0728 | – | 0.0646 | 0.0768 | 0.0606 | 0.062
